Source: US9353185B2, “Antibodies” (Affitech Research AS, priority 2010, dated 2016)
“Also recorded” adds a separate entry of the source.

Columns and labels:
[1] = molecular target: T1, CXCR4 (Homo sapiens, UniProt P61073); test: Interference with ligand binding: IgG binding to CCRF-CEM cells without and with SDF-1α
T1 construct: CRL-1596 (Ramos); host or cells: Ramos, Jurkat 6E-1, CCRF-CEM
Experimental: CCRF-CEM were maintained as described above.
Cells of the natural CXCR4^+ expressing cell line CCRF-CEM were harvested from the culture flasks, washed 2 times with PBS supplemented with 0.2% BSA and 0.09% NaN3 buffer and aliquoted at 1×10^5 cells per well into V-shaped 96-well plates (Greiner Bio-One, Frickenhausen, Germany). Cells were pelleted by centrifugation (350 g, 5 min) and then incubated for 60 min at 4° C. with 4, 1, 0.5 μg SDF-1α (PeproTech EC, London, UK) and 50 μl IgG diluted to 2 μg/ml in PBS supplemented with 0.2% BSA and 0.09% NaN3 buffer, both added at the same time to the cells. Samples without ligand served as control. The supernatants were aspirated after a centrifugation step at 350 g for 5 min and the cells were washed another two times with 150 μl PBS supplemented with 0.2% BSA and 0.09% NaN3 and centrifugation steps (5 min at 350 g) before being stained with RPE-conjugated goat anti-human IgG (AbD seroTec #204009) diluted to 2.5 μg/ml in with PBS supplemented with 0.2% BSA and 0.09% NaN3 and incubated for 30 minutes at 4° C. The cells were washed again and re-suspended in 200 μl PBS with 0.2% BSA and 0.09% NaN3 and transferred to a U-shaped 96-well plate (Corning) for flow cytometry using an EasyCyte device (Guava Technologies, Hayward, Calif., USA).

[2] = molecular target: T2, mouse CXCR4 (Mus musculus, UniProt P70658); test: Species cross reactivity: binding to HEK-293 cells transiently expressing mouse CXCR4; details: scFv level; transiently transfected HEK-293 cells
T2 construct: expressed in transfected cells; host or cells: HEK-293 (HEK293T/17), transient transfection with Fugene
T2 sequence (P70658 whole entry): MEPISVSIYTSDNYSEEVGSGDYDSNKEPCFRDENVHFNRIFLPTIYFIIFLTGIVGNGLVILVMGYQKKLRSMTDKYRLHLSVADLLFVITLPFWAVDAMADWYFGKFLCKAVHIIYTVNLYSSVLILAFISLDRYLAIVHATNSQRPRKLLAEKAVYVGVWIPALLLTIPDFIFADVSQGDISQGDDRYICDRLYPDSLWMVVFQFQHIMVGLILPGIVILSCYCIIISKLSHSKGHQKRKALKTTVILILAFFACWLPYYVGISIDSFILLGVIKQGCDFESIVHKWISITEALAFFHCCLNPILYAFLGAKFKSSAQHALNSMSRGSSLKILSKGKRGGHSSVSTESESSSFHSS
Experimental: (§1) The antibody candidates were tested on scFv level for their ability to cross-react with CXCR4 from monkey and mouse.
(§2) HEK293T/17 cells were maintained as described above.
(§3) FACS-binding analyses (EasyCyte) were performed using HEK-293 cells transiently transfected with plasmids encoding either, mouse (Gene bank accession number BC031665) or monkey (Macaca mulatta) CXCR4 (NCBI Accession number NP_001036110). Two experiments were performed, one using α-cMyc and PE-labelled goat anti-mouse IgG antibody, the second using a directly conjugated RPE-c-Myc antibody for detection. In addition, cross-reactivity on IgG level was analysed. In the latter case, antibody binding was detected with PE-conjugated goat anti-human IgG antibody.

[3] = molecular target: T3, monkey (Macaca mulatta) CXCR4 (Macaca mulatta, UniProt P79394); test: Species cross reactivity: binding to HEK-293 cells transiently expressing monkey CXCR4; details: scFv level; transiently transfected HEK-293 cells
T3 construct: expressed in transfected cells; host or cells: HEK-293 (HEK293T/17), transient transfection with Fugene
T3 sequence (P79394 whole entry): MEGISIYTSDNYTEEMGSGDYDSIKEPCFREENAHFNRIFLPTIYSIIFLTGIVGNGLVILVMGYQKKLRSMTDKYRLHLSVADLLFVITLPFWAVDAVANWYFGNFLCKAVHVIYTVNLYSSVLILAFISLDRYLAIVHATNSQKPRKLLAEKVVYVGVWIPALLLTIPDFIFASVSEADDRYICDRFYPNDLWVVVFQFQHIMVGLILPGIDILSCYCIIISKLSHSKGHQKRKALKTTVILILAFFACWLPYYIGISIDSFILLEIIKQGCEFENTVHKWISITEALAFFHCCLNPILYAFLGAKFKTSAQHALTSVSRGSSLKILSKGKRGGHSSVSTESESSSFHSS
Experimental: as §1, §2, §3

[4] = molecular target: T1, CXCR4; test: Inhibition of SDF-1α ligand induced Ca++ flux in CCRF-CEM cells (Fluo-4); type: cell-based
Experimental: 9N10 was only tested on IgG level. The experiment was performed using the naturally CXCR4^+ positive cell line CCRF-CEM.
The CCRF-CEM target cells, were harvested by centrifugation and washed twice in RPMI-1640 culture medium. Either 1 ml with 2.5×10^6 cells (for IgGs) or 10 ml with 2.5×10^7 cells (for scFvs) were mixed with Fluo-4-AM (acetoxymethyl ester; Invitrogen), Pluronic F-127 (Invitrogen) and Probenecid to final concentrations of 1 μM, 0.02% and 1 mM respectively. The cells were incubated at 37° C. for 60 mM on a vertical rotating wheel (7 rpm). All subsequent steps were done in the presence of 1 mM Probenecid. The cells were washed twice in RPMI-1640 with 10% fetal calf serum (FCS), once in an assay buffer (145 mM NaCl, 4 mM KCl, 1 mM NaH2PO4, 0.8 mM MgCl2, 25 mM Hepes, 22 mM glucose) and then resuspended to a final density of 4×10^6 cells/ml. Equal volumes of cells, assay buffer with or without antibodies and ligand (SDF-1α) were mixed. The first two components (cells and antibodies) were pre-incubated for 15 min prior to adding the ligand, SDF-1α (final concentration 50 ng/ml). The final concentrations of antibodies were 10 μg/ml or 100 μg/ml for IgGs and 4 μg/ml for scFvs. The samples were immediately analyzed using the 515-545 nm band pass filter on a FACSCanto II (BD Biosciences). The areas under the curves (AUC) were integrated using software Prism (GraphPad) and plotted as percentage of AUC for maximal stimulation with SDF-1α alone.
The experiment was performed as described above, but the antibodies were used in a titration series with concentrations of 100, 20, 4, 0.8, 0.16, 0.032, 0.064 and 0.00128 μg/ml.

[5] = system: CXCR4+ Ramos cell line; test: Induction of apoptosis (Annexin V / PI staining); type: cell-based, human; details: IgG1 0.08 to 10 μg/ml, 48 hrs, versus background level
Experimental: The ability of anti-CXCR4 antibodies to induce apoptosis was assessed on the CXCR4^+ Ramos cell line.
Ramos cells were cultivated as described above.
The Ramos cells were harvested by centrifugation, washed twice in RPMI-1640 culture medium with 10% FCS and resuspended in RPMI-1640 medium with 10% FCS to a density of 3×10^5 cells/ml. The cell suspension (250 μl) was mixed with the same volume of either antibody to be tested in dilutions (final concentration of 0.08 to 10 μg/ml) or staurosporin (25 nM) in wells of a 24-well plate and incubated at 37° C. for 48 hrs. The cells were collected by centrifugation and washed in Annexin V Binding Buffer (10 mM Hepes, 140 mM NaCl, 2.5 mM CaCl2, 0.2% BSA, pH 7.4). The cells were harvested again and resuspended in 300 μl Annexin V Binding Buffer. Both FITC-conjugated Annexin V and propidium iodide (PI) were mixed with 240 μl cell suspension resulting in a final concentration of PI of 0.2 μg/ml. The samples were analyzed immediately after adding the ligand using the 515-545 nm and 610/20 nm band pass filters on a FACSCanto II flow cytometer (BD Biosciences). The apoptotic cells were defined as Annexin V positive/PI negative and the dead cells were defined as PI positive.

T1 sequence (P61073 whole entry): as the sequence (P79394 whole entry) above, with I24M, H35N, R38K, K146R, S176N, D214V counted along it

B1: 9N10: human anti-CXCR4 antibody; scFv SEQ ID NO: 101; same VH as C-9P21; IgG1/kappa heavy chain SEQ ID NO: 108, light chain SEQ ID NO: 125 (antibody)
heavy: QVQLQESGGGLVHPGGSLRLSCAASGFTFSSYWMHWVRQAPGKGLVWVSRINSDGSSTSYADSVKGRFTISRDNAKNTLYLQMNSLRAEDTAVYYCARKILGVGARSRRYFDYWGQGTMVTVSS[human IgG1 constant region left out]
light: DIVLTQTPDSLAVSLGETTTINCKSSQSVLHSSNNKNYLAWYQQKPGQPPKLLIYWASTRESGVPDRFSGSGSGTDFTLTISNLQPEDVAFYYCLQYSTFPRTFGQGTKVEIKRTVAAPSVFIFPPSDEQLKSGTASVVCLLNNFYPREAKVQWKVDNALQSGNSQESVTEQDSKDSTYSLSSTLTLSKADYEKHKVYACEVTHQGLSSPVTKSFNRGEC
modifications: antibody sequence
notes: human anti-CXCR4 antibody; same VH as C-9P21
Question: B1 was tested. Which “specific binding to CCRF-CEM cell line” value ([1]; IgG 2 μg/ml (0.1 μg per 10^5 cells)) did it give?
Answer: specific binding

Question: And the “inhibition of antibody binding by SDF-1” value ([1]; IgG, 4, 1, 0.5 μg SDF-1α, CCRF-CEM cells)?
Answer: capable of inhibiting the binding of CXCR4 to its ligand SDF-1; also recorded: inhibited by SDF-1

Question: And the “cross-reactivity with mouse CXCR4” value [2]?
Answer: same cross-reactivity pattern as C-9P21, with slightly higher absolute values for binding

Question: And the “cross-reactivity with monkey CXCR4” value [3]?
Answer: bind to both human CXCR4 and monkey CXCR4; also recorded: same cross-reactivity pattern as C-9P21, with slightly higher absolute values for binding

Question: And the “inhibition of SDF-1α-induced signalling, IgG level” value ([4]; IgG 10 or 100 μg/ml (9N10: 1 or 10 μg/ml), CCRF-CEM cells)?
Answer: inhibition of SDF-1α-induced signalling was demonstrated

Question: And the “efficiency in inhibition of Calcium flux relative to C-9P21” value ([4]; IgG level, from IC50 values)?
Answer: approximately eight times more efficient

Question: What about the “antagonistic effect on Ca++ signalling induced by SDF1α binding to CXCR4 (overall)” value ([4]; scFv and/or IgG, CCRF-CEM cells) of the same molecule?
Answer: capable of inhibiting ligand induced signalling via CXCR4; also recorded: most prominent effect

Question: And the “induction of apoptosis (Annexin V positive/PI negative cells)” value [5]?
Answer: do not induce significant apoptosis
